# Some of the results follow.
# Tested on: PfAP2-HC AP2 domain (GST-tagged)
# Test: gcPBM binding intensity (ln(normalized median fluorescence intensity)); higher = stronger DNA binding
# Outline: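 The binding buffer was 1× PBS containing 1% milk, 0.2 mg/ml BSA, 0.5% salmon testes DNA and 0.03% Triton X-100. In it, GST-tagged P. falciparum DNA-binding domains expressed in E. coli were applied for 1 h to an Agilent 4 × 180k array of primer-extended double-stranded 36-bp intergenic genomic probes plus negative controls. Binding intensity, read with Alexa488 anti-GST antibody and a 488 nm scan, is the highest Masliner-normalised natural-log median intensity across replicate spots of either probe orientation.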
row,Sequence,gcPBM binding intensity (ln)
1,TATCAAAATTGTAATTGTACTTGTAAGTGGATATAT [XGTACX_site5949],9.56
2,TATATATTTCATCCTTGTACACATTTGTGTTTACAT [XGTACX_site1132],10.2
3,GTATTGCATGAGGACACACACAAAAAAAATATAGAT [CACACA_site6500],10.1
4,TTTTTTTTTACTTGTTGTACTTTTTCAAGGTATTGT [XGTACX_site7778],9.72
5,ATATAAAAAAATTGCACACATAAATAAATACAGATA [CACACA_site4806],9.9
6,TAAAAATTGAAGCACACACACAAAAGAAATACAATA [CACACA_site1113],10.9
7,ATATTTACAAGTAATAGTACAGTTAATTATATAAAA [XGTACX_site4856],9.62
8,ATTATATAGCTAAAAAAAATAAATTAAAAATATTAA [TGCATGCA_negctrl_site505],9.29
9,AAGAATGTTATTAGTACACACAATTATTATAGAAAT [CACACA_site7714],9.87
10,AATGTACAAATACGTACACACATATTTATATTTATA [CACACA_site6833],9.85
11,CTACCTTTAATATATACACACACATAAAAAAAATAT [CACACA_site8548],10.5
12,ATATATATATATAATAAACACACAAATAGATATAAC [CACACA_site9234],10.1
13,TATATATATATATATACATGCATACATATACATACA [TGCATGCA_site897],9.52
14,AGATAAGATATATACACACACATAAATACGTACAAA [CACACA_site6639],10.3
15,AATGTACCCACACCCACACACAAACAAATATATATA [CACACA_site2751],10.2
16,ATAGGATGCATATGAGTGCATTCTGTGTTGTTATAA,9.57
17,AGATTAAAATATATACGTACATATTATTAATTAATA [XGTACX_site3487],9.59
18,TACTTGTTATTAACATGTACAAAAAAAAAAAAAATT [XGTACX_site1338],9.4
19,AAACAATATTCTCAAGTGCAAAAAGAAAAAAGAAAT,9.93
20,TTTATTTTTATTTAAAGTACATATCCATTTATTCCT [XGTACX_site1914],9.53
21,ATTTTCTTATATATATTTTGTATATATTTTGTACAT [CACACA_negctrl_site1496],10.2
22,ACCCATATAATATATACACACATATATATATATATA [CACACA_site4731],10
23,TAATGTATTATATTTTGTTTTCTTCCACCAAAAAAA [XGTACX_negctrl_site64],9.33
24,AAAAAAAAAATTAAATGTACACACACCTTAAACAAT [XGTACX_site3848],10.7
25,CAATTAAAGATATGAACACACATGTGAACTTTCTAT [CACACA_site7796],9.78
